Here are results for 21 variants from the RNAGym collection of RNA variant scans (doi:10.7554/elife.90254).

The source gives no read counts; variants with many changes may rest on few reads.

The chains are these.
B1: OR4K15 (parent)
chain: GUUAACGGUCAUAGGCCAUGGAAACUAGGAGCACCAUUUCGCUGCCAGUGAAGAAAUGAACAAAGAAAAUCUGGGCCAGGCAGGCAUCAAAAGAAAUAGUCUUGCGCUCAACCAGAAAGUCUGUAAUCAUUUUAAGGGUA

In the data set the parent is B1. Kind of data set: self-cleavage, relative activity (ratio to wild type); higher = more cleavage; in vitro, sequencing; the parent is a self-cleaving ribozyme.
In the case of GUUAACGGUCACAGGCCAUGGAAACUAGGAGCACCAUUUCGCUGCCAGUGAAGAGAUGAACAAAGAGAAUCUGGGCCAGGCAGGCAUCAAAAGAAAUAGUCUUGCGCUCAACCAGAAAGUCUGUAAUCAUUUUAAGGGUA, the self-cleavage was found to be 1.04.

Turning to GUUAACGGUCACAGGCCAUGGAAACUAGGAGCACCAUUUCGCUGCCAGUGGAGAAAUGAACAAAGAAAAUCUGGGCCAGGCAGGCAUCAAAAGGAAUAGUCUUGCGCUCAACCAGAAAGUCUGUAAUCAUUUUAAGGGUA, the self-cleavage was determined as 1.3.

As for GUUAACGGUCACAGGCCAUGGAAACUAGGAGCACCAUUUCGCUGCCAGUGGAGAAAUGAACAAAGAAAAUCCGGGCCAGGCAGGCAUCAAAAGAAAUAGUCUUGCGCUCAACCAGAAAGCCUGUAAUCAUUUUAAGGGUA, the self-cleavage came out at 0.17.

GUUAACGGUCACAGGCCAUGGAAACUAGGAGCACCAUUUCGCUGCCAGUGAAGAAAUGGACAAAGAAAAUCUGGGCCAGGCAGGCAUCAAAAGUAAUAGUCUCGCGCUCAACCAGAAAGUCUGUAAUCAUUUUAAGGGUA: the self-cleavage was 1.14.

Turning to GUUAACGGUCACAGGCCAUGGAGACUAGGAGCACCAUUUCGUUGCCAGUGAAGAAAUGAACAAAGGAAAUCUGGGCCAGGCAUGCAUCAAAAGUAAUAGUCUUGCGCUCAACCAGAAAGUCUGUAAUCAUUUUAAGGGUA, the self-cleavage came to 0.45.

Consider GUUAACGGUCACAGGCCAUGGAAACUAGGAGCACCAUUUCGCUGCCAGUGAAGAAAUGAACAAAGGAAAUCUGGGCCAGGCAGGCAUCAAAAGAGAUAGGCUUGCGCUCAACCAGAAAGUCUGUAAUCAUUUUAAGGGUA, for which the self-cleavage was determined as 1.17.

Consider GUUAACGGUCACAGGCCAUGGAAACUAGGAGCACCAUUUCGCUGCCAGUGAAGGAAUGAACAAAGAAAACCUGGGCCAGGCAGGCAUCAAAAGAAAUAGUCUUGCGCUCAACCAGAAAGUCUGUAAUCAUUUCAAGGGUA, for which the self-cleavage came to 1.32.

For GUUAACGGUCACAGGCCAUGGAAACUAGGAGCACCAUUUCGCUGCCAGUGAAGAAAUGAACAGAGAGAAUCUGGGCCAGGCAGGCAUCAAAAGAAAUAGUCUCGCGCUCAACCAGAAAGUCCGUAAUCAUUUUAAGGGUA, the self-cleavage came out at 0.22.

As to GUUAACGGUCACAGGCCAUGGAAACUAGGAGCACCAUUUCGCUGCCAGUGAAGAAAUGAACUAAGAAAACCUGGGCCAGGCAGGCAUCAAAAGAAAUAGUCUUGCGCUCAACCAGAAAGUCUGUAAUCAUUUUAAGGGUA, the self-cleavage came to 0.82.

GUUAACGGUCACAGGCCAUGGAAACUAGGAGCACCAUUUCGCUGCCAGUGAAGAAAUGAACCAAGAAAAUCUGGGCCAGGCAGGCAUCAAAAGAAAUAGUCUUGCGCUCGACCAGAAAGUCUGUAAUCAUUUUAAGGGUU: the self-cleavage amounted to 0.15.

Turning to GUUAACGGUCACAGGCCAUGGAAACUAGGAGCACCAUUUCGCUGCCAGUGAAGGAAUGAACAAAGAAAAUCUGGGCCAGGCAGGCAUCAAAAGAAAUAGUCUUGCGCUCAACCAGAGAGUCUGUAAUCAUUUUAAGGGUA, the self-cleavage was determined as 1.47.

With GUUAACGGUCACAGGCCAUGGAAACUAGGAGCACCAUUUCGCUGCCAGUGAAGAAAUGUACAAAGAAAAUCUGGGCCAGGCAGGCAUCAAAAGAAAUAGUCUUGCGCUCAACCAGAAAGUCUGUAAUCAUUCUAAGGGUA, the self-cleavage was found to be 2.21.

For the variant GUUAACGGUCACAGGCCAUGGAUACUAGGAGCACCACUUCGCUGCCAGUGAAGAAAUGAACAAAGAAAAUCUGGGCCAGGCAGGCAUCAAAAGAAAUAGUCUUGCGCUCAACCAGAAAGUCUGUAGUCAUUUUAAGGGUU, the self-cleavage is 0.72.

As for GUUAACGGUCACAGGCCAUGGAAACUAGGAGCACCAUUUCGCUGCCAGUGAAGAAGUGAACAAAGAAAAUCUGGGCCAGGCAGGCAUCAAAAGAAAUAGUCUUGCGCUCAACCAGAAAGUCUGUAAUCAUUUUAAGGGAA, the self-cleavage turned out to be 1.86.

Take GUUAACGGUCACAGGCCAUGGAAACUAGGAGCACCAUUUCGCUGCCAGUGAGGAAAUGAACAAAGAAAAUCUGGGCCAGGCAGACAUCAAAAGAAAUAGUCUUGCGCUCAACCAGAAAGUCUGUAAUCAUUUUAAGGGUA: the self-cleavage was determined as 1.31.

On to GUUAACGGUCACAGGCCAUGGAGACUAGGAGCACCACUUCGCUGCCAGUGAAGAAAUGAACAAAGAAAAUCUGGGCCAGGCAGGCAUCAAAAGAAAUAGUCUUGCGCUCAACCAGAAAGUCCGUAAUCAUUUUAAGGGUA, for which the self-cleavage was determined as 1.26.

Take GUUAACGGUCACAGGCCAUGGAAGCUAGGAGCACCAUUUCGCUGCCAGUGAAGAAAUGAACAAGGAAAAUCUGGGCCAGGCAGGCAUCAAAAGAAAUAGUCUCGCGCUCAACCAGAAAGUCUGUAAUCACUCUAAGGGUA: the self-cleavage was found to be 0.37.

With GUUAACGGUCACAGGCCAUGGAAACUAGGAGCACCAUUUCGCUGCCAGUGAAGAAAUGAACAAGGGAAAUCUGGGCCAGGCAGGCAUCAAAAGAAAUAGUCUUGCGCUCAACCAGAAAGUCUGUAAUCAUUUUAAGGGUA, the self-cleavage was 1.71.

GUUAACGGUCACAGGCCAUGGAAGCUAGGAGCACCAUUUCGCUGCCAGUGAAGAAAUGAACAAAGAAAAUCUGGGCCAGGCAGGCAUCAAAAGAAAUAGUCUUGCGCUCUACCAGAAAGUCUGUAAUCAUUUUAAGGGUA: the self-cleavage was 1.87.

Consider GUUAACGGUCACAGGCCAUGGAGACUAGGAGCACCAUUUCGCUGCCAGUGAAGAAAUGAACAAAGAAAAUCUGGGCCAGGCAGGCAUCAAAAGAAAUGGUCUUGCGCUCAACCAGAAAGUCUGUAAUCAUUUUAAGGGUA, for which the self-cleavage was 0.3.

Turning to GUUAACGGUCACAGGCCAUGGAAGCUAGGAGCACCAUUUCGCUGCCAGUGAAGAAAUGAACAAAGAAAGCCUGGGCCAGGCAGGCAUCAAGAGAAAUAGUCUUGCGCUCAACCAGAAAGUCUGUAAUCAUUUUAAGGGUA, the self-cleavage stood at 0.28.
